The record followed here is US9226952B2, “Na/K-ATPase-derived peptide Src inhibitors and ouabain antagonists and uses thereof” (The University of Toledo, priority 2008, dated 2016).

One test relates to Src in LLC-PK1 cells. In words: Basal Src activity (pY418) in LLC-PK1 cells. Type of test: cell-based, pig. As to conditions: LLC-PK1 cells transiently transfected, 24 h.
The next test relates to His-Src. In words: In vitro GST pulldown assay. It counts as binding. As to conditions: 5 μg GST fusion protein, purified His-Src.

Take “YFP-CD3: YFP fusion of the third cytosolic domain expressed from pEYFP-CD3 plasmid”: the “Src activity (pY418) in lysates of transfected cells” value with Src in LLC-PK1 cells is recorded as “reduced Src activity”. For “ND1R: GST fusion protein, amino acid residue 436-594 of pig kidney Na/K-ATPase α1 subunit”, the “binding to Src in GST pull-down” value in the test with His-Src is on record as “not”. “YFP-ND: YFP fusion of the N domain expressed from pEYFP-ND plasmid”: the “Src activity (pY418) in lysates of transfected cells” value with Src in LLC-PK1 cells is recorded as “reduced Src activity”.
